According to EP3970494A1 (priority 2020, dated 2022):

Assays:
[1] = test system: Botrytis cinerea
Description: (§1) The active compounds were formulated separately as a stock solution having a concentration of 10000 ppm in dimethyl sulfoxide. The stock solutions were mixed according to the ratio, pipetted onto a micro titer plate (MTP) and diluted with water to the stated concentrations.
(§2) After the addition of the respective fungal spore suspensions as described below, the plates were placed in a water vapor-saturated chamber at a temperature of 18 °C. Using an absorption photometer, the MTPs were measured at 405 nm 7 days after the inoculation.
Use example 3. Activity against the grey mold Botrytis cinerea (BOTRCI)
A spore suspension of Botriytis cinerea in an aqueous biomalt or yeast-bactopeptone-sodiumacetate solution was used.
(§3) The measured parameters were compared to the growth of the active compound-free control variant (100%) and the fungus-free blank value to determine the relative growth in % of the pathogens in the respective active compounds.

[2] = test system: Fusarium culmorum
Description: as §1, §2
Use example 6. Activity against Fusarium culmorum (FUSACU)
A spore suspension of Fusarium culmorum in an aqueous biomalt or yeast-bactopeptone-glycerine or DOB solution was used.
as §3

[3] = test system: Septoria tritici
Description: as §1, §2
Use example 4. Activity against wheat leaf blotch pathogen Septoria tritici (SEPTTR)
A spore suspension of Septoria tritici in an aqueous biomalt or yeast-bactopeptone-glycerine or DOB solution was used.
as §3

Compound | Fungal growth at 31 ppm (%) BOTRCI [1] [%] | Fungal growth at 31 ppm (%) FUSACU [2] [%] | Fungal growth at 31 ppm (%) SEPTTR [3] [%]
CO/N=C(\C)c1ccnc(/C(C)=N/OCc2c(C)cccc2/C(=N\OC)C(=O)OC)c1 [Example 29, Methyl (2E)-2-methoxyimino-2-[2-[[(E)-1-[4-[(E)-N-methoxy-C-methyl-carbonimidoyl]-2-pyridyl]ethylideneamino]oxymethyl]-3-methyl-phenyl]acetate] | 14 | – | –
CNC(=O)/C(=N/OC)c1cccc(C)c1CO/N=C(\C)c1cc(/C(C)=N/OC)ccn1 [Example 30, (2E)-2-Methoxyimino-2-[2-[[(E)-1-[4-[(E)-N-methoxy-C-methyl-carbonimidoyl]-2-pyridyl]ethylideneamino]oxymethyl]-3-methyl-phenyl]-N-methyl-acetamide] | 18 | – | –
CO/N=C(/C(=O)OC)c1cccc(C)c1CO/N=C(\C)c1cc(C(F)(F)F)cc(C)n1 [Example 46] | 0 | – | –
CO/N=C(/C(=O)OC)c1cccc(C)c1CO/N=C(\C)c1cnc(C)c(F)c1 [Example 100] | – | 20 | –
CO/N=C(/C(=O)OC)c1cccc(C)c1CO/N=C(\C)c1cc(C(F)(F)F)ncn1 [Example 113, Methyl (2E)-2-methoxyimino-2-[3-methyl-2-[[(E)-1-[6-(trifluoromethyl)pyrimidin-4-yl]ethylideneamino]oxymethyl]phenyl]acetate] | 0 | – | –
CO/N=C(/C(=O)OC)c1cccc(C)c1CO/N=C(\C)c1cc(C(F)(F)F)nn1C [Example 117, Methyl (2E)-2-methoxyimino-2-[3-methyl-2-[[(E)-1-[2-methyl-5-(trifluoromethyl)pyrazol-3-yl]ethylideneamino]oxymethyl]phenyl]acetate] | 18 | – | –
(2E)-2-methoxvimino-N-methyl-2-[3-methyl-2-[[(E)-1-[2-methyl-5-(trifluoromethyl)pyrazol-3-yl]ethylideneamino]oxymethyl]phenyl]acetamide [Example 118] | – | – | 0
(2E)-2-methoxyimino-N-methyl-2-[3-methyl-2-[[(E)-1-[4-(trifluoromethyl)-6-vinyl-2-pyridyl]ethylideneamino]oxymethyl]phenyl]acetamide [Example 114] | 0 | 1 | 0
